# Several values for one entry are separate records, joined by “and”; a condition that tells them apart may be missing. Equal entries are not always repeated. About 1,200 (2.5%) of roughly 48,000 compounds were called active. Inconclusive results, whose numbers are uncertain, are shown with a selection of clear calls.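 The calls were made as follows: active = activation of at least 60% and not above a set upper limit (about 1 call in 100 departs from these limits); inconclusive = activation of 40% to 60%, or above that upper limit; inactive = activation under 40%.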 The source holds several records for some structures; these can differ, active in one and inactive in another.
# Target: Probable G-protein coupled receptor 32 (Homo sapiens) (UniProt O75388)
# Assay: qHTS for Agonists of Human Resolvin D1 Receptor DRV1; also: 0% is about no effect
# Conditions: CHO-K1 GPR32 beta-arrestin PathHunter luminescence, 90 min; at 76.9 µM; stronger effect = higher value; zero percent set by DMSO-only wells
# In short: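 PathHunter beta-arrestin recruitment in CHO-K1 cells stably expressing ProLink-tagged GPR32. Cells were exposed to compound for 90 min at 37 C, then chemiluminescence was read after 1 h detection at ambient temperature; DMSO served as basal control.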
# UniProt O75388, sequence (O75388 whole entry, looked up): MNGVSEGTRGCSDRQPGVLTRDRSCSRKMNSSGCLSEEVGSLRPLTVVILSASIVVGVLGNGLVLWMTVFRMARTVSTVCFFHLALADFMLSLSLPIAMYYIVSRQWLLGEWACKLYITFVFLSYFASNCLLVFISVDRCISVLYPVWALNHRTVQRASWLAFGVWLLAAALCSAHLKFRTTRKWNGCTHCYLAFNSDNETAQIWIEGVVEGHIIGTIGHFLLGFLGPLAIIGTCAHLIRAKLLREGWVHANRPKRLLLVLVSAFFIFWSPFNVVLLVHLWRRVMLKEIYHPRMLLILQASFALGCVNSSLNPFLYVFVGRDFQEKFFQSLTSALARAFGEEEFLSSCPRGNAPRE
row,Compound,activation
1,O=C(Nc1cccc(NC(=O)c2ccc(Br)cc2)c1)c1ccccc1,inconclusive: 136%
2,O=C(CCS(=O)(=O)c1cccs1)Nc1ccc(C(=O)Nc2ccccc2F)cc1,inconclusive: 54.8%
3,Cc1ccc(-c2c(C)n3c4c(=O)n(C)c(=O)n(C)c4nc3n2CCO)cc1,inconclusive: 52%
4,Cc1ccccc1-c1nc2cc(NC(=O)Cc3ccc(Cl)cc3)ccc2o1,active: 118%
5,Cc1cccc(NC(=O)CCCCCn2c(=O)[nH]c3ccsc3c2=O)c1,inconclusive: 59.5%
6,Cc1cccc(N2CCN(C(=O)c3cn(CC(C)C)c(=O)c4c3c3ccccc3n4C)CC2)c1C,inactive: -16.1%
7,C/C(=N\O)[C@@H](C)NCC(C)(C)CN[C@H](C)/C(C)=N/O,active: 118%
8,COc1ccccc1/C=C/c1nc2ccccc2n1C(C)C,inconclusive: 134%
9,CCN(CC)c1cc(C)c2cc(NC(=O)c3cccc(OC)c3)ccc2n1,inactive: 35.9%
10,CCCn1ccc2c(OCC(=O)NCc3ccc(C)cc3)cccc2c1=O,inconclusive: 142%
11,COc1cc(NS(=O)(=O)c2ccc3c(c2)CCN3S(C)(=O)=O)cc(OC)c1,inconclusive: 132%
12,Cc1ccc(Cl)cc1N1CCN(C(=O)CCNS(=O)(=O)c2ccc3c(c2)CCN3C(=O)C2CC2)CC1,inactive: 40.8%
13,Cc1cc(C)cc(NC(=O)CCCn2c3ccccc3c(=O)c3ccccc32)c1,inactive: 41%
14,COC(=O)C(NC(=O)CCc1c(C)nc2c(c(C)nn2-c2ccccc2)c1C)C(C)C (centres undefined),inactive: 28%
15,O=C(C1CCC1)N1CCc2cc(S(=O)(=O)N3CCN(c4ccccc4)CC3)ccc21,inconclusive: 53.7%
16,Cc1cccc(NC(=O)c2oc3c(c2C)-c2[nH]ncc2CC3)c1C,inactive: 4.06%
17,CN(CC(=O)Nc1cccc(Cl)c1)S(=O)(=O)c1ccc2[nH]c3c(c2c1)CCCC3,inconclusive: 138%
18,Cc1ccc(S(=O)(=O)NCC(Nc2cccc(Cl)c2)c2ccccc2)cc1 (centres undefined),inconclusive: 142%
19,O=S(=O)(c1ccc2nc(Nc3cccc(F)c3)ccc2c1)N1CCCC1,inconclusive: 57.4%
20,CC(NC(=O)CSc1nc(-c2cccc(Cl)c2)nc2cc(=O)[nH]n12)c1nc2ccccc2n1C (centres undefined),active: 68.7%
21,COc1cc(C(=O)N2CCC(c3nc4ccccc4s3)CC2)cc(OC)c1OC,inconclusive: 169%

row,Compound,activation
1,Cc1nc(-c2ccc(S(=O)(=O)NCc3ccc(OC(C)C)cc3)cc2)co1,inconclusive: 57.5%
2,COc1ccc(NC(=O)Nc2cc(-c3cn4cccnc4n3)ccc2OC)cc1,inconclusive: 51.3%
3,Cc1ccc(NC(=O)Cn2c(=O)oc3cc(S(=O)(=O)N4CCCCC4)ccc32)c(C)c1,active: 115%
4,CCc1ccccc1NC(=O)CSc1nnc(COc2ccccc2Cl)o1,active: 69.1%
5,O=c1oc2c(O)c(O)cc3c(=O)oc4c(O)c(O)cc1c4c23,inconclusive: 56.7%
6,COc1cc2nc(Nc3ccc(C)c(C)c3)nc(N)c2cc1OC,active: 82.9%
7,CN(C)CCCOC1(Cc2ccccc2)CCCCCC1,inactive: -7.64%
8,CCc1ccc(CNC(=O)c2ccc(-n3c(C)cc4c3CCC(C)C4)cc2)cc1 (centres undefined),inactive: -11.9%
9,COc1cccc(NC(=O)CSc2nc3ccc(NC(=O)c4ccco4)cc3s2)c1,inconclusive: 58%
10,COc1ccc(S(=O)(=O)N2c3ccc(Cl)cc3[C@@](O)(c3ccccc3Cl)[C@H]2C(=O)N2CCC[C@@H]2C(N)=O)cc1OC,inconclusive: 51.1%
11,CCC(=O)Nc1ccc2nc(SCc3ccc(C)cc3)sc2c1,active: 86.3%
12,O=C(CSc1ncc(CO)n1Cc1ccccc1)Nc1nc2ccccc2s1,active: 60.3%
13,COc1ccc(-n2nc(C(=O)NCCc3ccc(Cl)cc3)c3c4ccccc4n(C)c3c2=O)cc1,inactive: -4.93%
14,OCCN(CCO)c1nc(N2CCCCC2)c2nc(N(CCO)CCO)nc(N3CCCCC3)c2n1,active: 108% and inactive: -14.1%
15,COc1cccc(CNC(=O)Cn2c(=O)oc3cc(S(=O)(=O)N4CCCCCC4)ccc32)c1,active: 75.9%
16,CCC(=O)Nc1cccc(-c2nc3cc(C)ccc3o2)c1,inconclusive: 56.3%
17,Cc1ccccc1NC(=O)c1ccc(N(Cc2ccccc2)S(C)(=O)=O)cc1,inconclusive: 58.8%
18,Cc1ccc(CSc2nc3cccnc3n2Cc2ccc(C(=O)NC3CCCCC3)cc2)cc1,inactive: -9.18%
19,O=C1N(Cc2ccccc2)c2ccccc2C1(O)c1c[nH]c2ccccc12 (centres undefined),inconclusive: 123%
20,Cc1cc(NC(=O)c2ccc(NC(=O)CCS(=O)(=O)c3cccs3)cc2)ccc1Br,inconclusive: 58.4%
21,COc1ccc(CNC(=O)CCc2nc(-c3ccc(OC)cc3)no2)cc1,inactive: 9.28%

row,Compound,activation
1,NS(=O)(=O)c1ccc(NC(=O)CSc2ccc3ccccc3n2)cc1,inconclusive: 53%
2,CC(C)c1ccc(C2NC(=O)c3n[nH]c(-c4cccs4)c32)cc1 (centres undefined),inconclusive: 59.4%
3,O=C1CC(c2nc(-c3ccccc3)no2)CN1c1ccccc1 (centres undefined),active: 64.7%
4,O=C(NCc1c(-n2cccc2)sc2c1CCCC2)Nc1cccc(C(F)(F)F)c1,inconclusive: 52.4%
5,CCOc1ccc(C(=O)N2CC(=O)Nc3ccc(C)cc3C2c2ccc(F)cc2)cc1OCC (centres undefined),inconclusive: 53.1%
6,COc1ccc(Cn2c(C(=O)O)c(CNCc3ccco3)c3ccc(C)cc32)cc1,inconclusive: 50.6%
7,COc1ccccc1C(=O)Nc1nnc(SCc2cc(=O)c3ccccc3[nH]2)s1,inconclusive: 122%
8,COc1ccc(C(=O)/C=C/c2cn(CC(O)CN3CCCCCC3)c3ccccc23)cc1OC (centres undefined),inconclusive: 53.5%
9,COc1cc(OC)cc(-c2cc3nc(C)c(CCC(=O)NCCc4cccc(C)c4)c(C)n3n2)c1,inactive: -7%
10,COc1ccc(NC(=O)c2ccco2)cc1NC(=O)COc1ccc(C)c(C)c1,inconclusive: 148%
11,CCOc1ccc(Nc2oc(-c3ccc(COc4ccc(OC)cc4)o3)nc2C#N)cc1,active: 86.3%
12,COC(=O)c1ccccc1NC(=O)c1cc(-c2ccccc2O)no1,inconclusive: 123%
13,Cc1cc(C)cc(NC(=O)Cn2c(-c3cncs3)nc3ccccc32)c1,inconclusive: 294%
14,CC(=O)c1ccc(N2CCN(S(=O)(=O)c3cc4[nH]c(=O)c(=O)[nH]c4cc3C)CC2)cc1,inconclusive: 54.6%
15,Cc1ccc(OCCSc2nc(-c3ccccc3C)nc3cc(=O)[nH]n23)cc1Cl,inconclusive: 139%
16,COc1cccc(Cn2nc(SC)c(S(=O)(=O)c3ccccc3)c2N(C(C)=O)C(C)=O)c1,inconclusive: 59%
17,CCn1c(C(=O)NCCc2ccc(S(N)(=O)=O)cc2)cc2sc(Cl)cc21,inconclusive: 54.6%
18,CCCCN(CCCC)CC(O)c1cc(Cl)cc2c1-c1ccc(Cl)cc1/C2=C/c1ccc(Cl)cc1 (centres undefined),inconclusive: 172%
19,COc1ccc2c(CNCc3cccs3)c(C(=O)O)n(Cc3ccc(F)cc3)c2c1,inconclusive: 121%
20,CCCCN(C)CC(O)Cn1cc(/C=C/C(=O)c2ccc(Br)cc2)c2ccccc21 (centres undefined),active: 74.2%
21,Cc1noc2ncnc(NCCc3ccccc3)c12,inconclusive: 50.9%

row,Compound,activation
1,Cc1ccc(NS(=O)(=O)c2ccc3nc(-c4ccccc4)[nH]c3c2)cc1Cl,inconclusive: 136%
2,COCCCNC(=O)c1ccc2c(c1)nc1n2CCCCC1,inactive: -4.4%
3,COc1cccc(NC(=O)Nc2ccc3nc(N4CCN(C)CC4)cc(C)c3c2)c1,inconclusive: 680%
4,O=C(Nc1cccc(C(F)(F)F)c1)Nc1cccs1,inconclusive: 57.4%
5,COc1ccc(Nc2cc(C(=O)NCCCN(C)Cc3ccccc3)c3ccccc3n2)c(OC)c1,active: 65.4%
6,O=C(Nc1ccc2oc(-c3ccccc3)nc2c1)c1ccc2ccccc2c1,inconclusive: 58.7%
7,Clc1cccc(-n2ncc3c(NCCc4ccccc4)ncnc32)c1,inconclusive: 150%
8,Cc1cc(NS(=O)(=O)c2ccc3nc(-c4ccccc4)[nH]c3c2)ccc1Br,inconclusive: 203%
9,Cc1ccc(C(=O)Nc2ccc(Br)cc2)cc1S(=O)(=O)N1CCOCC1,inconclusive: 50.2%
10,O=C1CCCc2cc(S(=O)(=O)NCC3CCC(C(=O)Nc4ccc(Cl)cc4)CC3)ccc2N1 (centres undefined),inconclusive: 235%
11,COc1cccc(Cc2nc3ccccc3nc2SCC(=O)NCCc2ccccc2)c1,inactive: -4.1%
12,Cc1ccc(-c2nc3ccccc3[nH]2)cc1NC(=O)COc1ccccc1[N+](=O)[O-],active: 79.1%
13,COc1ccc(Nc2oc(-c3ccc(COc4cccc(C)c4)o3)nc2C#N)cc1,active: 97.3%
14,Cc1ccc(CNC(=O)Cn2c(SCC(=O)Nc3ccc(F)cc3)nc3ccccc32)cc1,inconclusive: 137%
15,Clc1ccc(CN2CCN(c3ncnc4sc5c(c34)CCCC5)CC2)cc1Cl,inconclusive: 50.7%
16,Cc1nc2cc(-c3ccccc3)nn2c(C)c1CCC(=O)N1CCN(c2ccc(F)cc2)CC1,inactive: 5.86%
17,COc1cc(C2CC(=O)N(Cc3cccc(F)c3)c3ccccc3S2)cc(OC)c1OC (centres undefined),inactive: 10%
18,COc1ccc(-c2nnc(SCC(=O)N3CCC(C)CC3)o2)cc1,active: 78%
19,COc1ccccc1CNC(=O)CCc1c(C)nc2cc(-c3ccc(Cl)cc3)nn2c1C,inactive: -0.0433%
20,Cc1ccc(NC(=O)c2cnc(N3CCCC3)nc2C)cc1F,inconclusive: 249%
21,Cc1cc2[nH]c(=O)c(=O)[nH]c2cc1S(=O)(=O)N1CCN(c2cccc(Cl)c2)CC1,inconclusive: 127%

# Reference: PubChem BioAssay AID1346428 (National Center for Advancing Translational Sciences (NCATS), 2018)
